# According to PubChem BioAssay AID686979 (National Center for Advancing Translational Sciences (NCATS), 2013):
# Several values for one entry are separate records, joined by “and”; a condition that tells them apart may be missing. Identical values can stand only once. Out of some 420,000 compounds screened, about 50,000 (12%) were called active. This list was built around the results that the source calls inconclusive (neither active nor inactive); the mix of calls is not that of the screen. Calls follow the shape of the dose curve; as a rule, active = well fitted inhibition curve with a large enough effect; inconclusive = small, poorly fitted or top-dose-only effect; inactive = flat fitted curve, though single readings scatter. Potencies beside an inconclusive call are fits to weak or partial responses and may not hold up.
# Assay: qHTS for Inhibitors of human tyrosyl-DNA phosphodiesterase 1 (TDP1): qHTS in cells in presence of CPT; also: nearly all actives have a fitted effect of over 55% in size
# Settings: chicken DT40 Tdp1-/-;hTDP1 cells + 20 nM CPT, ATP luminescence, 48 h; activity change, negative = growth inhibition: at 46.2 µM (top of the series) unless noted
# Method in brief: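 Chicken DT40 Tdp1-/- cells stably complemented with human TDP1 were seeded at 400 cells/well in medium containing 20 nM camptothecin, exposed to pin-transferred compounds, and grown at 37 °C for at least 48 hr. Viability was read as ATP luminescence.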
# % is scaled to controls: 0 for no effect and ±100 for the full control effect; potency is read from the fitted curve at half-maximal effect; tags tell the direction and shape of the fitted curve.
Compound,Potency,"activity change, negative = growth inhibition"
CC1=NN(c2ccc([N+](=O)[O-])cc2)C(=O)C1,inactive,–
CC1CCN(C(=O)CN2C(=O)C(=O)N(C)C2=O)c2ccccc2S1 (centres undefined),inactive,–
CC(C)(C)N(Cc1ccccc1)C(=O)COC(=O)c1cccc([N+](=O)[O-])c1,inactive,–
O=C1CCC/C(=N/NC(=O)C2CCN(S(=O)(=O)c3cccs3)CC2)C1,inactive,–
CN(C)c1ccc(CNS(=O)(=O)c2ccc3c(c2)NC(=O)CS3)cc1,inactive,–
CCOC(=O)c1cnc2cc(C(F)(F)F)ccc2c1N1CCN(c2ccc(F)cc2)CC1,"inconclusive: 14.6 µM [inhibitor, partial curve, poor fit]",–
O=C(Cn1cnc2c(OCc3ccccc3)ncnc21)NCc1nc2ccccc2[nH]1,"inconclusive: 29.1 µM [inhibitor, single point]",–
COc1cc2[nH]c(=O)c(C(=O)NCc3ccc(F)cc3)c(O)c2cc1OC,"inconclusive: 29.1 µM [inhibitor, single point]",–
COc1c(C)cc(C(=O)C2CCCN(Cc3ccc(Oc4ncccn4)cc3)C2)cc1C (centres undefined),"inconclusive: 25.9 µM [inhibitor, single point]",–
CCN(CC)CCCNc1ccc2ncn3c4ccc(O)cc4c(=O)c1c23,active: 0.146 µM,–
Cc1ccc(Cn2ccn(CC(=O)Nc3ccccc3C(F)(F)F)c(=O)c2=O)cc1,inactive,–
COc1ccc(NC(=O)CN(C)C(=O)/C=C/c2ccc(S(=O)(=O)N3CCCCCC3)cc2)cc1,"inconclusive: 25.9 µM [inhibitor, partial curve]",–
Cc1ccc(NC(=O)CCCNC(=O)c2ccc(Cl)cc2)c(Br)c1,inactive,–
Cc1n[nH]c(C)c1Sc1ccccc1N=Cc1cc(Cl)cc([N+](=O)[O-])c1O,"inconclusive: 29.1 µM [inhibitor, single point]",–
CC(=O)c1cccc(Nc2cc(C)nc3ccccc23)c1,"inconclusive: 29.1 µM [inhibitor, single point]",–
CCOc1ccccc1NC(=O)Cn1c(=O)n(CCCC(=O)NCCOC)c(=O)c2cc(OC)c(OC)cc21,inactive,–
C/C(=N\Nc1nccnc1Cl)c1ccc(Br)cc1,"inconclusive: 14.6 µM [inhibitor, single point]",–
COc1cccc(C2=NOC(C(=O)Nc3cccc(C(C)=O)c3)C2)c1 (centres undefined),"inconclusive: 5.8 µM [inhibitor, full curve, poor fit]",–
CCc1nc2c(OCc3ccccc3C(=O)OC)cccn2c1N(C)C(=O)c1ccncc1,"inconclusive: 29.1 µM [inhibitor, single point]",–
CCc1ccc(C(O)c2ncc(-c3cccc(F)c3)[nH]2)cc1 (centres undefined),"inconclusive: 18.4 µM [inhibitor, single point]",–
COC(=O)c1ccccc1NC(=O)CSc1nc(-c2ccccc2)cc(C(F)(F)F)n1,"inconclusive: 29.1 µM [inhibitor, single point]",–
C=CCNC(=O)CCCCCNS(=O)(=O)c1ccc(OC)cc1,"inconclusive: 6.51 µM [inhibitor, single point]",–
COc1ccc(-c2ccc3oc(-c4ccc(OC)cc4)c(C#CCCO)c3c2)cc1,"inconclusive: 23.1 µM [inhibitor, single point]",–

Compound,Potency,"activity change, negative = growth inhibition"
CC(C)[C@H](NC(=O)c1ccco1)C(=O)OCc1cc(=O)n2c(n1)sc1ccccc12,"inconclusive: 18.4 µM [inhibitor, single point]",–
CC(Oc1ccc(Cl)cc1)c1ccnn1S(=O)(=O)c1ccc(Cl)cc1 (centres undefined),inactive,–
O=C(NS(=O)(=O)c1ccccc1)c1ccccc1,"inconclusive: 29.1 µM [inhibitor, single point]",–
COc1ccccc1CNC(=O)CCc1c(C)nc2cc(-c3ccccc3OC)nn2c1C,"inconclusive: 23.1 µM [inhibitor, single point] and inconclusive: 29.1 µM [inhibitor, single point]",–
C/C(Cn1nc([N+](=O)[O-])cc1C)=N\NC(=O)COc1ccc(Cl)cc1Cl,inactive,–
NNC(=O)COc1ccc(-c2n[nH]c(C(F)(F)F)c2-c2ccc(Br)cc2)c(O)c1,inactive,–
Cc1ccc(NC(=O)CN2CCCN(Cc3ccccc3Cl)S2(=O)=O)c(C)c1,"inconclusive: 23.1 µM [inhibitor, single point]",–
C/C(=N\NC(=O)COc1cccc(C)c1)c1ccc2ccccc2c1O,"inconclusive: 14.6 µM [inhibitor, partial curve, poor fit]",–
CCOCCc1nn2c(=O)cc(COC(=O)COc3ccccc3Cl)nc2s1,inactive,–
OCCN(CCO)c1cc2c3ccccc3ccc2c2ccccc12,"inconclusive: 29.1 µM [inhibitor, single point]",–
COc1ccc(CNCCC(c2ccc(F)cc2)c2ccc(OC(C)C)cc2)cc1OC (centres undefined),active: 16.4 µM,–
Cc1cc(Cl)ccc1NC(=O)CN1C(=O)CSc2ccc(S(=O)(=O)N(C)C)cc21,"inconclusive: 16.4 µM [inhibitor, single point]",–
CS(=O)(=O)c1ccc2nc(NC(=O)Nc3cccc(Cl)c3)sc2c1,active: 16.4 µM,–
O=C(Cn1cnc2sc(-c3ccccc3)cc2c1=O)NCc1ccccc1,active: 3.66 µM,–
COc1cc(NC(=O)Cn2cnc(C(=O)Nc3ccc(C)c(C)c3)n2)cc(OC)c1OC,inactive,–
COC(=O)[C@@]1(Cc2ccc(OC)cc2)[C@H]2c3cc(C(=O)N4CCCC4)n(Cc4cc(C)n(C)n4)c3C[C@H]2CN1C(=O)c1ccccc1,"inconclusive: 29.1 µM [inhibitor, single point]",–
CCCC(C)C(=O)Nc1nc(C)c(-c2csc(Nc3cc(Cl)ccc3C)n2)s1 (centres undefined),"inconclusive: 29.1 µM [inhibitor, single point]",–
O=C(COC(=O)c1cc(S(=O)(=O)N2CCOCC2)ccc1Cl)c1ccc[nH]1,inactive,–
CCOCCCNC(=O)C1CCC(CNS(=O)(=O)c2cccc3nsnc23)CC1 (centres undefined),"inconclusive: 23.1 µM [inhibitor, single point]",–
COCCNC(=S)N1CCC(C(=O)c2ccc(Cl)cc2)CC1,"inconclusive: 29.1 µM [inhibitor, single point]",–
O=C(c1ccc(F)cc1F)N1CCN(c2ccccn2)CC1,inactive,–
CCOc1ccc(C2c3[nH]c4ccccc4c3CCN2C(=O)Cc2cccc(OCC)c2OCC)cc1 (centres undefined),"inconclusive: 16.4 µM [inhibitor, partial curve]",–
CC(=O)C1CCCN(C(=O)c2ccc3oc(CCc4ccccc4)nc3c2)C1 (centres undefined),"inconclusive: 16.4 µM [inhibitor, single point]",–

Compound,Potency,"activity change, negative = growth inhibition"
Cc1noc(C)c1C(=O)N1CCC[C@@]2(CCN(Cc3ccccc3)C2)C1,inactive,–
O=C(COc1cccnc1[N+](=O)[O-])NCc1ccc(F)cc1,inactive,–
Cc1cc(NC(=O)c2ccc3c(c2)C(=O)N(C)C3=O)no1,inactive,–
CC(C)N(C)CCOC(=O)c1ccccc1Cl,inactive,–
CCOC(=O)c1cnc2ccc(C(=O)OC)cc2c1Nc1ccccc1CC,active: 16.4 µM,–
Cc1cc(C)c2c(c1)-c1c(ssc1=S)C(C)(C)N2C(=O)CN1C(=O)c2ccccc2C1=O,active: 20.6 µM,–
Cc1ccc(C)c(S(=O)(=O)N2CCN(C(=O)c3ccc4ccccc4n3)CC2)c1,–,inconclusive: -32.9% [inhibitor]
CCOc1ccc(S(=O)(=O)N2CCN(C(=O)c3cc4c(s3)CCCC4)CC2)cc1,active: 16.4 µM,–
C=CCN1C(=O)[C@]2(c3ccccc31)C1CCCC=C1C(C#N)=C(N)C2(C#N)C#N (some centres undefined),"inconclusive: 29.1 µM [inhibitor, single point]",–
CC(=O)C1=C(C)NC(SCC(=O)c2ccc(Cl)c(Cl)c2)=C(C#N)C1c1ccco1 (centres undefined),"inconclusive: 29.1 µM [inhibitor, single point]",–
O=C(CCc1nnc(Cc2ccc(-c3ccccc3)cc2)o1)NCCc1cccnc1,"inconclusive: 29.1 µM [inhibitor, single point]",–
CCOC(=O)c1c(C)[nH]c(C(=O)OCc2nc3ccsc3c(=O)[nH]2)c1C,"inconclusive: 23.1 µM [inhibitor, partial curve]",–
CC1Nc2ncnc(N3CCN(c4ccccc4)CC3)c2N(Cc2ccc(Cl)cc2)C1=O (centres undefined),"inconclusive: 29.1 µM [inhibitor, single point]",–
CCCC(=O)NC(c1ccco1)c1cc(Cl)c2cccnc2c1O (centres undefined),active: 3.66 µM,–
O=C(Nc1ccc(Cl)c(Cl)c1)c1ccccc1,"inconclusive: 29.1 µM [inhibitor, single point]",–
O=C(O)CCC(=O)Nc1ccc(NC(=O)c2ccc(Cl)cc2Cl)c(Cl)c1,inactive,–
c1ccc(C2CC(c3ccccc3)n3c(nc4ccccc43)N2)cc1 (centres undefined),active: 16.4 µM,–
CC(=O)c1c(C)[nH]c(C(=O)NCC2CCCCC2)c1C,inactive,–
COc1ccc(OCCNC(=O)c2ccc3nc(C)c(N(C)Cc4ccc(NC(C)=O)cc4)n3c2)cc1,active: 16.4 µM,–
COc1ccc(CC(=O)NCC(=O)NC(Cc2ccccc2)C(=O)O)cc1 (centres undefined),inactive,–
CCOC(=O)[C@H]1[C@H]2COc3ccc(C)cc3[C@@H]2N2C(=O)c3cc(OC)c(OC)cc3NC(=O)[C@@]12C,"inconclusive: 14.6 µM [inhibitor, partial curve, poor fit]",–
COc1ccc(-c2nc3sc(CCNC(=O)c4cccc(C(F)(F)F)c4)c(C)n3n2)cc1,"inconclusive: 18.4 µM [inhibitor, single point]",–
Cc1cc[n+](-c2[nH]c(=O)sc2/C=N/NC([S-])=Nc2ccccc2)cc1,"inconclusive: 1.16 µM [inhibitor, partial curve, poor fit]",–
